PubChem BioAssay AID1347073 (National Center for Advancing Translational Sciences (NCATS), 2019)
The whole screen tested about 45,000 compounds, of which about 200 (0.44%) were called active. Not shown: some 7% with an inconclusive outcome. Calls come from the whole dose curve; as a rule, active = well fitted activation curve with a large enough effect; inconclusive = small, poorly fitted or top-dose-only effect; inactive = no such curve, though single readings can be large or run the other way. Some of the results follow.

assay: qHTS of TDP-43 Inhibitors: NCGC Sytravon Library Screen; details: yeast TDP-43 toxicity rescue, BacTiter-Glo growth, 24 h; series mostly up to 46.1 µM; growth rescue (activation): at the top concentration; note: 0% is about no effect; nearly all actives have a fitted effect of over 55% in size
Outline: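 TDP-43-expressing yeast, pregrown in raffinose, seeded at OD600 0.02 in galactose medium with compound for 24 hr at 30 deg C. Growth read by BacTiter-Glo luminescence, so rescue of toxicity appears as activation.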

Compound | growth rescue (activation)
COc1cccc(C(=O)Nc2ccc(NC(=O)C3CCCCC3)nc2)c1 | inactive: 7.13%
COc1cccc(/C=C/C(=O)c2ccc(NS(=O)(=O)c3ccc(C)cc3)cc2)c1 | inactive: 3.48%
Cc1cccc(C2CC3(CC(C)(C)NC(=S)N3)Oc3cc(O)ccc32)c1 (configuration not stated) | inactive: -2.21%
CC1(C(=O)Nc2ccc3c(c2)OCO3)CCN1Cc1csc2ccccc12 (configuration not stated) | inactive: 1.52%
CC(C)(C)NC(=O)C(c1ccc(F)cc1)N(C(=O)CCC(=O)Nc1ccccn1)C1CCCC1 (configuration not stated) | inactive: 10.9%
CC1CCN(S(=O)(=O)c2ccc(NC(=O)C3CCN(C(=O)c4ccco4)CC3)cc2)CC1 | inactive: 9.43%
COc1cc(C(=O)OC2CCOC2=O)c([N+](=O)[O-])cc1OC (configuration not stated) | inactive: -6.26%
O=C(COC(=O)/C=C/c1ccc(OC(F)F)cc1)Nc1cccc(S(=O)(=O)N2CCOCC2)c1 | inactive: 9.59%
COC(=O)c1cc([N+](=O)[O-])ccc1N1CCN(Cc2ccccc2)CC1 | inactive: -14.1%
Nc1nonc1-n1nnc(C(=O)N/N=C/c2ccccc2Cl)c1-c1ccccc1 | inactive: -2.92%
COc1ccc(C(=O)NCC2(N3CCCCC3)CCCCC2)cc1S(=O)(=O)N(C)C | inactive: 1.04%
COc1ccc(C(O)(CC(C)C)C(CN2CCOCC2)c2ccccc2)cc1 (configuration not stated) | inactive: 9.02%
CC(C(=O)NC1CCCC1)N1CCN(Cc2ccccc2)CC1 (configuration not stated) | inactive: 17.3%
Cc1c(NC(=O)c2c([N+](=O)[O-])cnn2C)c(=O)n(-c2ccccc2)n1C | inactive: 4.6%
O=C(c1cccc(OC2CCN(Cc3cccc(OCCO)c3)CC2)c1)N1CCCC1 | inactive: 14.1%
CC(=O)c1ccc(-n2c(CCC(=O)O)ccc2-c2ccc(C)cc2)cc1 | inactive: 4.11%
CC/C(=N\Nc1ccccc1[N+](=O)[O-])c1ccc(O)cc1 | inactive: -3.86%
Cc1nnc(NC(=O)CCS(=O)(=O)Cc2ccccc2)s1 | inactive: -1.32%
CCCCc1nnc(NC(=O)CSc2nc(O)c(-c3ccccc3)c(=O)[nH]2)s1 | inactive: 15.8%
CCOc1ccc(NC(=S)N(CCN2CCOCC2)Cc2cc3cc4c(cc3[nH]c2=O)OCO4)cc1 | inactive: 3.22%
COc1cc(C=O)ccc1OCCOc1ccccc1[N+](=O)[O-] | inactive: 13%
NCCNc1cc(N2CCCC2)ccc1[N+](=O)[O-] | inactive: -0.736%
Cc1ccc(C)c(N2C(=N)S/C(=C\c3ccc(-c4ccccc4C(=O)O)o3)C2=O)c1 | inactive: 27.7%

Compound | growth rescue (activation)
Cn1nc(C(C)(C)C)cc1C(=O)N1CCCCC1c1cc(C(=O)Nc2cccc(C#N)c2)no1 (configuration not stated) | inactive: 9.4%
CCOc1ccc(S(=O)(=O)NC(C)C(=O)NCc2cccnc2)cc1 (configuration not stated) | inactive: 8.41%
CCOc1ccc(Oc2c(/C=N/NC(C)=O)c(C)nn2-c2ccccc2)cc1 | inactive: -4.02%
Oc1c(Cl)cc(Cl)cc1/C=C/c1ccc2cccc(O)c2n1 | inactive: 24.4%
COc1ccc2cc(CN(CCc3ccccc3)Cc3nnnn3Cc3ccco3)c(=O)[nH]c2c1 | inactive: 6.95%
Cn1nc(C(F)(F)F)c2cc(NC(=O)OCc3ccc(C(C)(C)C)cc3)sc21 | inactive: 13.9%
Cc1ccc(NC(N)=S)cc1 | inactive: 9.93%
O=C(CSc1nnc(-c2cccnc2)s1)Nc1ccc(C(=O)O)cc1 | inactive: -20.8%
O=C(COC(=O)c1sc2ccccc2c1Cl)Nc1ncc(Cl)cc1Cl | inactive: 1.8%
CCOC(=O)C1CCCN(C(=O)c2ccc(Cl)cc2)C1 (configuration not stated) | inactive: 12.9%
COc1ccc(Nc2nc(-c3cccc([N+](=O)[O-])c3)nc3ccccc23)c(OC)c1 | inactive: -38%
CCOc1ccc(C(C)=O)cc1COc1cccnc1[N+](=O)[O-] | inactive: 2.4%
O=[N+]([O-])c1cccc(N(CC2CO2)S(=O)(=O)c2ccccc2)c1 (configuration not stated) | inactive: 7.67%
CCOC(=O)Nc1cc(C)c(Cl)cc1OC | inactive: 18.4%
O=C(Nc1ccccc1Cl)c1cc(C2CCCCN2S(=O)(=O)c2ccccc2)on1 (configuration not stated) | inactive: 6.53%
COc1nc(NC(C)C)nc(N(C#N)CN2C(=O)c3ccccc3S2(=O)=O)n1 | inactive: 28.9%
O=C(CSc1n[nH]c(-c2ccc(Br)cc2)n1)N1CCOCC1 | inactive: -26.7%
CCN(C(=O)COC(=O)c1c(C)nn(-c2ccccc2)c1C)C1CCS(=O)(=O)C1 (configuration not stated) | inactive: 5.44%
Cc1ccc(OCC(=O)NCC(=O)n2nc(C)cc2C)cc1 | inactive: 34.6%
CCCCN(CCCC)Cc1ccc(C(=O)NNC(=O)Nc2ccc(Cl)cc2)o1 | inactive: -1.7%
CC(NCC1COc2ccccc2O1)C1COc2ccccc2O1 (configuration not stated) | inactive: -14.1%
COc1ccc(C2C3=C(CC(C)(C)CC3=O)Oc3ncn(CC(C)C)c(=N)c32)cc1 (configuration not stated) | inactive: 26.8%
COc1ccc(Oc2cn[nH]c2-c2ccc(O)cc2O)cc1 | inactive: 9.82%

Compound | growth rescue (activation)
Nc1nc(Cl)cc(NCCc2ccc(O)cc2)n1 | inactive: -13%
Cn1ncc([N+](=O)[O-])c1C(=O)Nc1cccc2ccccc12 | inactive: -2.46%
COc1cc2c(c(OC)c1OC)-c1ccc(NC(=O)c3ccccc3)c(=O)cc1[C@@H](NC(C)=O)CC2 | inactive: 12.8%
Cc1cc(S(=O)(=O)N(Cc2ccc(C(C)(C)C)cc2)Cc2cccs2)ccc1-n1cnnn1 | inactive: 17.6%
COc1ccc(C(=O)Oc2ccc3ccc(=O)oc3c2)cc1 | inactive: 3.07%
Cc1ccccc1NC(=O)Nc1nc(C(N)Cc2ccccc2)cs1 (configuration not stated) | inactive: -0.25%
Nc1nc2c(s1)CCCCCCCCCC2 | inactive: -0.955%
CC(C)(C)Nc1c2ccccc2nc2ccccc12 | inactive: -1.54%
O=C(O)C1Cc2ccccc2CN1S(=O)(=O)c1ccccc1 (configuration not stated) | inactive: -4.69%
CCN(Cc1ccncc1)C(=O)CCc1nnc(CCC2CCCCC2)o1 | inactive: 15.9%
Cc1cc(NC(=O)C2CC(=O)N(c3ccc(F)cc3)C2)no1 (configuration not stated) | inactive: 1.5%
CCc1cccc(C)c1NC(=O)Cn1cnc2c1c(=O)n(C)c(=O)n2C | inactive: -3.05%
Cc1ccc(Nc2nnc(SCC(O)=C(C#N)c3nc4ccccc4[nH]3)s2)c(C)c1 | inactive: 17.7%
CCOC(=O)C1CCN(C(=O)CSc2nccc(C)n2)CC1 | inactive: 8.31%
COc1ccc(N(CC(=O)NCCc2ccccc2)C(=O)CCC(=O)Nc2ccccn2)cc1 | inactive: 7.48%
COc1cc(C(c2c(O)cc(C)[nH]c2=O)c2c(O)cc(C)[nH]c2=O)ccc1O | inactive: -6.38%
Cc1ccc(N(CC2CO2)S(=O)(=O)c2ccc(C)cc2)cc1 (configuration not stated) | inactive: 8.67%
CCNC(=O)C1(C)CCN(C(=O)c2cccc3ccccc23)C1 (configuration not stated) | inactive: 5.46%
Cc1ccc(C2OCC3(CO2)COC(c2ccc(C)cc2)OC3)cc1 (configuration not stated) | inactive: -2.01%
CC(C)N1CCN(C(=O)c2cccc(Cl)c2)CC1 | inactive: 5.75%
CC1Oc2ccc(C#N)cc2N(Cc2cccc(F)c2)C1=O (configuration not stated) | inactive: 28.3%
